# Screen size: about 110,000 compounds; about 610 (0.55%) were called active. Inconclusive means that the source gave no clear call. Such entries were picked first, then a sample of the others. Calls come from the whole dose curve; as a rule, active = well fitted inhibition curve with a large enough effect; inconclusive = small, poorly fitted or top-dose-only effect; inactive = no such curve, though single readings can be large or run the other way. Potencies beside an inconclusive call are fits to weak or partial responses and may not hold up.
# Molecular target: Polyunsaturated fatty acid lipoxygenase ALOX15B (Homo sapiens) (UniProt O15296)
# Assay: qHTS Assay for Inhibitors of 15-hLO-2 (15-human lipoxygenase 2); note: nearly all actives have a fitted effect of over 60% in size
# Conditions: purified 15hLO-2, xylenol orange hydroperoxide absorbance; activity change, negative = inhibition: at 57.1 µM (top of the series) unless noted
# How it was run: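 Purified human 15hLO-2 (50 nM final) preincubated with compounds 15 min at room temperature in 25 mM Hepes pH 7.5, 0.01% Triton X-100, then 45 uM arachidonic acid added for 90 min; hydroperoxide detected via ferrous/xylenol orange, 573/405 nm absorbance ratio.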
# % is set by controls: 0 for no effect and ±100 for the full control effect; potency is the fitted concentration of half-maximal effect; tags give direction and shape of the fitted curve.
# UniProt O15296, sequence (O15296 whole entry, looked up): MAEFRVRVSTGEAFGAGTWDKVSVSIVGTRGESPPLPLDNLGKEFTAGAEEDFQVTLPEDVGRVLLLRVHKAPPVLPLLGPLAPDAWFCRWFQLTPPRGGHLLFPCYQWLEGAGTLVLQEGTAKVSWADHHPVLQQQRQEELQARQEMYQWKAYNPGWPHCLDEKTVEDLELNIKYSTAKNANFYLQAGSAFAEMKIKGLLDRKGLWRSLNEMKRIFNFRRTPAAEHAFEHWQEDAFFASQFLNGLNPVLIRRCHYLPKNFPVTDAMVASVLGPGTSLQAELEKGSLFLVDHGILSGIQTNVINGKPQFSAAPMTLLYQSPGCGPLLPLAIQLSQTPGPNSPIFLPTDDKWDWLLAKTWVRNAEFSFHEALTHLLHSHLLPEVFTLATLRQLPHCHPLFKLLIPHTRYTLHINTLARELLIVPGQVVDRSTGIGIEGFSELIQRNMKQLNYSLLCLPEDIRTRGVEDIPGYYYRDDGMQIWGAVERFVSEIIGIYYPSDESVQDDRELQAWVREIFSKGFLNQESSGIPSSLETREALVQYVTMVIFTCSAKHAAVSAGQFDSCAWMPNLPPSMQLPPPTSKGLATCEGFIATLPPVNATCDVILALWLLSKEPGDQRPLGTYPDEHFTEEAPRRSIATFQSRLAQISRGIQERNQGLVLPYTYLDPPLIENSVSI
Compound,Potency,"activity change, negative = inhibition"
COc1ccc(-c2ccc(C(=S)N3CCN(C(C)=O)CC3)o2)cc1,"inconclusive: 15.8 µM [inhibitor, partial curve]",
O=C(COc1ccc(Br)cc1Br)NC(=S)N1CCCc2ccccc21,"inconclusive: 25.1 µM [inhibitor, single point]",
Cc1cc(=O)oc2cc(OC(C)C(=O)N3CCOCC3)ccc12 (stereo not drawn),inactive,
COc1cc(CNc2ccccc2SC)ccc1O,"inconclusive: 31.6 µM [inhibitor, single point]",
O=c1c(-c2ccccc2)nc2cnc(N3CCOCC3)nc2n1Cc1cccs1,inactive,
CC[C@H](c1ccc(O)cc1)[C@@H](CC)c1ccc(O)cc1,active: 10 µM,
O=C(O)CSc1ccc2ccccc2n1,inactive,
CCCCC1(CCCC)NC(=S)N(Nc2ccc(C)cc2)C1=O,inactive,
Cc1ccccc1/[N+]([O-])=C/c1ccncc1,"inconclusive: 20 µM [inhibitor, partial curve]",
CSC1CCCCC1(O)CSc1nc2c(cc1C#N)CCCC2 (stereo not drawn),"inconclusive: 31.6 µM [inhibitor, single point]",
O=C1Nc2cc(Cl)c(Cl)cc2N(O)N1c1ccc(Cl)cc1,"inconclusive: 3.98 µM [inhibitor, full curve, poor fit]",
CCCn1c(C)nc2c(NCc3ccccc3)nc(C)nc21,inactive,
C1COC1,inactive,
COC(=O)c1sc(NC(=O)c2ccc(Cn3cc(Cl)cn3)o2)c(C#N)c1C,"inconclusive: 15.8 µM [inhibitor, partial curve]",
CCCCN1CSC(=S)N(Cc2ccccc2)C1,,inactive: -11.5% [at 11.4 µM]
COc1ccc(-c2cc3nc(C)cc(NCCO)n3n2)cc1,inactive,
O=C1C=CC2=C3c4cc(O)c(O)cc4CC3(O)COC2=C1O (stereo not drawn),"inconclusive: 31.6 µM [inhibitor, partial curve]",
Cc1cnc(CNc2ncncc2-c2cccnc2)cn1,inactive,
CC1(C)Cc2c(C#N)c(N3CCCC3)nc(-c3ccco3)c2CO1,"inconclusive: 15.8 µM [inhibitor, partial curve]",
O=C(NCCCNC(=O)c1cccs1)c1cccs1,inactive,
CCOc1cc(C(=S)N2CCCCC2)ccc1OS(=O)(=O)c1ccc(Br)cc1,"inconclusive: 10 µM [inhibitor, partial curve]",
CC1CC2(CCCCC2)N2C(=O)C(=O)c3cccc1c32 (stereo not drawn),"inconclusive: 25.1 µM [inhibitor, partial curve]",
CSc1nc(-c2ccccc2)[nH]c(=S)c1C(C)=O,"inconclusive: 25.1 µM [inhibitor, partial curve]",
c1ccc(-c2cc(N3CCOCC3)nc(-c3ccccc3)n2)cc1,inactive,

Compound,Potency,"activity change, negative = inhibition"
Cc1ccc(-c2cc(-c3ccc(C)o3)nc(N)c2C#N)cc1,"inconclusive: 3.98 µM [inhibitor, full curve]",
COc1ccc(-c2cc(C(=O)OCC(=O)Nc3cc(C)on3)c3ccccc3n2)cc1OC,"inconclusive: 20 µM [inhibitor, single point]",
COc1ccc(OC)c(CCNC(=O)Cn2sc3nc(C)cc(C)c3c2=O)c1,"inconclusive: 10 µM [inhibitor, partial curve]",
CC(C)NC(=O)c1onc(CSc2ccc(F)c(F)c2)c1C(=O)O,"inconclusive: 7.94 µM [inhibitor, partial curve]",
O=C(Cc1cccs1)Nc1ccc(S(=O)(=O)N2CCCCC2)cc1,"inconclusive: 25.1 µM [inhibitor, single point]",
Cc1cc([N+](=O)[O-])ccc1NC(=S)NC(=O)C(c1ccccc1)c1ccccc1,"inconclusive: 25.1 µM [inhibitor, partial curve]",
CC1CCN(C(=S)c2ccc3c(c2)OCO3)CC1,inactive,
COc1ccc(CCn2c(=O)[nH]c3cc(C(=O)NCCc4ccccc4)ccc3c2=O)cc1OC,"inconclusive: 25.1 µM [inhibitor, partial curve]",
CCOC(=O)c1oc2cc(O)ccc2c(=O)c1-c1ccccc1OC,"inconclusive: 0.199 µM [inhibitor, full curve]",
CCn1c(N2CCN(C(=O)Nc3ccc(F)cc3)CC2)nc2ccccc21,"inconclusive: 0.316 µM [inhibitor, full curve]",
Cc1ccc(NC(=O)CN2C(=O)S/C(=C\c3ccc(-c4cccc(C(=O)O)c4C)o3)C2=O)cc1,"inconclusive: 39.8 µM [inhibitor, single point]",
CCOc1ccc(NS(=O)(=O)c2ccc3[nH]cc(C(=O)NCC4CCCO4)c(=O)c3c2)cc1 (stereo not drawn),inactive,
CS(=O)(=O)N1CCc2cc(-c3csc(NCC4CCCO4)n3)ccc21 (stereo not drawn),inactive,
CCCCCCc1cc2cc(C(=O)NC)c(=N)oc2cc1O,"inconclusive: 3.98 µM [inhibitor, full curve]",
CN(C)S(=O)(=O)c1ccc(C(=O)Nc2ccc(CCC(=O)N3CCCC3)cc2)cc1,inactive,
Cc1oc(C)c2c(=O)ccc3c(c12)OC(N)=C(C#N)C3c1ccc(F)cc1 (stereo not drawn),"inconclusive: 25.1 µM [inhibitor, single point]",
Cc1ccc(C(=O)c2coc3c2C(=O)C(=O)c2ccccc2-3)cc1,"inconclusive: 15.8 µM [inhibitor, partial curve]",
COC(=O)c1[nH]c2ccc(C)cc2c1NC(=O)Nc1ccccc1OC,inactive,
COc1ccc(N2Cc3cccc(C(=O)NC(C)CCc4ccco4)c3C2=O)cc1 (stereo not drawn),inactive,
N#Cc1cccc(-c2nccc(-n3ccnc3)n2)c1,"inconclusive: 39.8 µM [inhibitor, single point]",
NC(=O)SCC(=O)Nc1ccc(Cl)c(Cl)c1,"inconclusive: 3.16 µM [inhibitor, full curve, poor fit]",
COc1ccc(N(CC(=O)NCCSC2CCCCC2)S(C)(=O)=O)c(OC)c1,inactive,
Cc1nc(SCC(=O)c2cc3ccccc3oc2=O)c(C#N)c(C)c1C(=O)Nc1ccccc1,"inconclusive: 25.1 µM [inhibitor, single point]",
Cc1cc(C)c(NC(=O)COc2ccccc2C(=O)Nc2ccc3c(c2)oc2ccccc23)c(C)c1,"inconclusive: 20 µM [inhibitor, partial curve]",

# From PubChem BioAssay AID881 (National Center for Advancing Translational Sciences (NCATS), 2007)
